We go through 89 sequences from the supplement of paper PMC11417369.

This is one part of the list.

The test has as its system PfSIP2 AP2 domain 1 (GST-tagged). Briefly: gcPBM binding intensity (ln(normalized median fluorescence intensity)); higher = stronger DNA binding. The method in brief: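 Binding intensity is the highest Masliner-normalised natural-log median intensity over replicate spots in either probe orientation. To obtain it, GST-tagged P. falciparum DNA-binding domains made in E. coli were incubated for 1 h on an Agilent 4 × 180k array of primer-extended double-stranded 36-bp intergenic genomic probes plus negative controls. Detection used Alexa488 anti-GST antibody with scanning at 488 nm.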
On to “TCTATATCTTTCAACACACAAATTTTTTTTTCCATC [CACACA_site4238]”, for which the “gcPBM binding intensity (ln)” value amounted to 6.95. With “AAAAAAAAAAAAAAAGTGCACAGTCGTTTTAAAAAA [GTGCAC_site9848]” the figure was 10.7; with “ATTAACTATCATAACACACACAGTAGACATATTTTT [CACACA_site1822]”, 7.04; with “AAATCATTTAAGAACACACAAATATTTCCATTAAAT [CACACA_site6808]”, 6.9. With “AAGATAATATTTTCTTGTACGCATGCACATACAAAT [XGTACX_site7181]” the figure was 7.78.

Take “CTTTTCTCCCTCCATAGTACAATTATAAAAATATAT [XGTACX_site3090]”: the “gcPBM binding intensity (ln)” value came to 7.58. For the sequence “ATGCAAAGTTTATAAAGTACATAAGTCAAAATAAAA [XGTACX_site1441]”, the “gcPBM binding intensity (ln)” value came out at 7.04.

As for “CTCAATGTTTGCGATACATGCAAAAATTTTTAGAAT [TGCATGCA_site165]”, the “gcPBM binding intensity (ln)” value was found to be 7.1. As for “TACATTTCATTGTAATCATAAAAAATAAAGAAAAAA [XGTACX_negctrl_site542]”, the “gcPBM binding intensity (ln)” value amounted to 6.88. With “GAAAGGATATATATATATATATATATAATACATTTC [GTGCAC_negctrl_site677]” the figure was 7.75; with “TATATATACATACATACACACATATATATATATATT [CACACA_site4110]”, 7.27. For “ACATATAATATATAATGTACAAAATTGTTAACAATA [XGTACX_site3798]”, the “gcPBM binding intensity (ln)” value turned out to be 6.98. With “AAGAGAAAAATATATACACACACATAAATATATACA [CACACA_site8573]” the figure was 6.98; with “AAGGGGTAAAGAAAAACACACAAAAAATAAAAATAT [CACACA_site361]”, 7.26; with “GATGAAAATAGAAATACACACTAAAAAATAAAATTA [CACACA_site4764]”, 6.75. In the case of TGCATACTTTTGTAAGTGCATAAAATCGTACCATGC, the “gcPBM binding intensity (ln)” value worked out at 7.73. With “GAAATAATTCGATGTGCATGTAACGTTTCCCCAAAG [TGCATGCA_site122]”, the “gcPBM binding intensity (ln)” value worked out at 7.34. The same measure for “AATTAAAAAAAATACACACACACATACACATATATA [CACACA_site3298]”: 7.1. “CGTATTTATATAATTACACACCATATTATAATTATT [CACACA_site3760]”: the “gcPBM binding intensity (ln)” value was 7.05. The same measure for “CCAAAAAAAAAAAAAAGTACATAAAAACAAGAGAAT [XGTACX_site3037]”: 7.09. Regarding “AAATAAAAAACAGTGGCACACATTATGTATCCACCT [CACACA_site3756]”, the “gcPBM binding intensity (ln)” value came out at 6.73. As for “AAAAAAAAAATATACACACACATATAAATATAAATA [CACACA_site7574]”, the “gcPBM binding intensity (ln)” value worked out at 7.01. “TTAAAGTAGAGAAAATGTACATTTTATTAACACAAT [XGTACX_site6369]”: the “gcPBM binding intensity (ln)” value was 6.99. With “TACAGATACAGATACACACACACACCGAAATAAATA [CACACA_site4865]” the figure was 7.16; with “TAAATTCCTACATACGCATGTACATTAAAATTTTAA [TGCATGCA_site215]”, 6.99; with “AAAATAAAAAGAAAAAGAAAAAAGGGGGGGTAGGGG [CACACA_negctrl_site1048]”, 7.86. Turning to “CTTTAAGTTATATGAAGTACAATTTAAAAAAATGAA [XGTACX_site358]”, the “gcPBM binding intensity (ln)” value came to 6.98. “ATACATTCAATGAAATGTACGTTTATTTACAGAAGA [XGTACX_site2999]”: the “gcPBM binding intensity (ln)” value is 6.93.

In the case of “TAATGGTTATCACTAACATGCAGTAATATTATATAG [TGCATGCA_site176]”, the “gcPBM binding intensity (ln)” value was 6.71. The same measure for “TTTTTTCTTTTTTTTTGTACATATAATATTTATGTT [XGTACX_site302]”: 6.92; for “AAAAGAAAAAAAAAAAAAAAAAAAATTAAAATATAA [CACACA_negctrl_site17]”: 6.58. “ATATATATATGTATATGTACATATATATGGTAACTC [XGTACX_site681]”: the “gcPBM binding intensity (ln)” value was found to be 9.12. As to “ATATAATATTTATATGCACACTTTTCTATATATAAG [CACACA_site6100]”, the “gcPBM binding intensity (ln)” value is 7.7. As to “TAAAATATTATTTATTTACACACCAATCTTCTTTTC [CACACA_site9320]”, the “gcPBM binding intensity (ln)” value was 6.72.

Turning to “TCGTATTTAAAATGTAGTACATAATTTGAAAAATAA [XGTACX_site5832]”, the “gcPBM binding intensity (ln)” value was 7.08. The same measure for “CTTAGGTTAAAAGTGTGTACATAAAAACATATATAA [XGTACX_site2213]”: 7.36.

With “ATAAGAAAAAGACACACACACAAAAAAAAAAAAAAA [CACACA_site2828]”, the “gcPBM binding intensity (ln)” value is 7.02. As to “TAAATAAATTATTTTCGTACTTATTTATTTTAATTA [XGTACX_site283]”, the “gcPBM binding intensity (ln)” value amounted to 6.9.

Turning to “AAAAAAAAAAAACACACACACAAATACAAATGGTAA [CACACA_site1720]”, the “gcPBM binding intensity (ln)” value amounted to 7.11.

Regarding “AATACATATCAAAGCTGTACAAAGTAAATTTTACTT [XGTACX_site3525]”, the “gcPBM binding intensity (ln)” value is 6.79. With “AAGTTATTGATATATACACACAAATATAAATAATAT [CACACA_site6695]” the figure was 6.89. Regarding “TTCAATAGGTATAATTGTACTTAATAATATATTGTT [XGTACX_site8363]”, the “gcPBM binding intensity (ln)” value amounted to 6.91. For the sequence “TTATGTTCTTTAAAACCACACACCCCCCAACCCCCC [CACACA_site8742]”, the “gcPBM binding intensity (ln)” value was 10.1.

Take “TATATATGCATATACATACACACATAACACATACGT [CACACA_site3833]”: the “gcPBM binding intensity (ln)” value was 7.26.

Regarding “AATGTTTTATTTTGAAGTACATTTAAGAATTTTTTA [XGTACX_site7814]”, the “gcPBM binding intensity (ln)” value amounted to 6.86. “TATGAAATTATAATTACACACAGGAAAATAAAATGT [CACACA_site1517]”: the “gcPBM binding intensity (ln)” value came to 7.26. As to “ATATAATAATAAGGCACACAAATTAAAATATAAAAA [CACACA_site3710]”, the “gcPBM binding intensity (ln)” value came out at 7.02. With “CATTATGTCGTAAATACACACATACATATACATACA [CACACA_site8383]” the figure was 7.02; with TTTTGACCATATCTGTTGCACTTTTGTGCTATTCGA, 8.31; with “AAGGATCACAGACAAACACACATATATATATATATA [CACACA_site4469]”, 9.55. The same measure for “AAATAATTTGTTGACACACACACACCCATACAGATA [CACACA_site5291]”: 7.23; for “TAAATTTTTTCCTCCTGTACTTATTATATTTTTTTG [XGTACX_site1572]”: 7.02; for “ATTAATTCGTTTTGTACACACATAATGAGTAATTTA [CACACA_site7118]”: 6.97. Consider “ATAAAAATTGATTATACACACGCGCCCAGACAACAA [CACACA_site5870]”, for which the “gcPBM binding intensity (ln)” value was found to be 7.24. Turning to “ATATAGATGCATAATACACACATCAGATAATTAACC [CACACA_site6871]”, the “gcPBM binding intensity (ln)” value worked out at 7.1.

“TTTTTTTTTTTTTTTTGTACTCATATCTACTATCAT [XGTACX_site274]”: the “gcPBM binding intensity (ln)” value turned out to be 6.99. The same measure for “ACAAGGTTTACGGGTAGTACAAATTTTTGAACATCT [XGTACX_site4739]”: 6.76. With “AGCCAAACCTTAAATTTAGCAATAAGTTTACAGGTC [CACACA_negctrl_site360]”, the “gcPBM binding intensity (ln)” value worked out at 6.67. With “ATTAAAAGTTTATACAAATAAAAAACAAAACAAAAA [CACACA_negctrl_site1030]” the figure was 7.14; with “TGTGTATTTATAAATACACACCAAATGTTAATATAT [CACACA_site6904]”, 6.97; with “GTAAAATGATATAAATGTACATAATATATATATGTC [XGTACX_site4049]”, 7.02. Take “TGTCATATTATAAATTGTACAAATAGTATAATTATT [XGTACX_site581]”: the “gcPBM binding intensity (ln)” value came to 7.09. The same measure for “ATTTTATCTTTAAACTGTACGTATTAATATGTAGAA [XGTACX_site3077]”: 7.09; for “ATAAAAATATTATAAGCACACATATATATATATATA [CACACA_site8781]”: 9.62; for “AGTATACATATATATACACACATATATATATATATA [CACACA_site300]”: 9.52. The same measure for “TTATGCCTTTAATATACACACTAATATTTTTTTGGC [CACACA_site5171]”: 6.92; for “AATTTTTTTTTTAGACGTACAAGAAAAAACAAAAAA [XGTACX_site4990]”: 7.07; for “AACTATAAAAATTTTACACACTGTTTTTAAATAATG [CACACA_site5928]”: 7.06. With “TATATGAAGTACACAATACACACTAATTATATATAA [CACACA_site2608]” the figure was 7.12; with “AAGGAAATATAATATACACACATAAGTGTACTTATA [CACACA_site4030]”, 6.91. Take “TAATAAAGTGAATAATGTACATTTTATTTATTATAT [XGTACX_site6614]”: the “gcPBM binding intensity (ln)” value is 6.95. For the sequence “ATTATATATCCCTATTCACACATGTATTATATAAAT [CACACA_site5486]”, the “gcPBM binding intensity (ln)” value was 7.27. On to “GAAAAATTAAAAATAACACACACATATATATATTTA [CACACA_site8896]”, for which the “gcPBM binding intensity (ln)” value worked out at 6.98.

“TCAGTAATACTTGAATGTACTTATATTGTTTGTTTG [XGTACX_site6449]”: the “gcPBM binding intensity (ln)” value was determined as 6.64. With “CCTATATTAAAACAAGCACACAATCGCATAATATCC [CACACA_site9052]” the figure was 7.09; with “TTAACATATTTGTTAGTGCATTTTGATATTACACAT [GTGCAC_site9978]”, 8.47. The same measure for “AAAAAAATTAAATGTACACACACCTTAAACAATGTC [CACACA_site1855]”: 6.88; for TCTTTTTCTTGACGAGTGCAAAAATTGTGTTTGAAA: 9.16; for “ATTTATTTTATATGTTGTACAAACATTTTAAAACAT [XGTACX_site6919]”: 6.95. Regarding “ATAAATAAATAAATAAATAAATAAATAAATATATAT [CACACA_negctrl_site1728]”, the “gcPBM binding intensity (ln)” value amounted to 7.22. Turning to “CTAATATCTGTATGCACACACAATAAATACATATTT [CACACA_site5797]”, the “gcPBM binding intensity (ln)” value was 7.69.

In the case of “AATGCCTTGTTGAGGTGTACTGAATGTTATTTTAAT [XGTACX_site3255]”, the “gcPBM binding intensity (ln)” value was determined as 6.99. The same measure for “TTTTTTTAAAGAATTATCATAAAATGATTGCATCAT [XGTACX_negctrl_site141]”: 6.59; for “ATCAACATCTAACATTGTACATGTGATGTGTAAAAG [XGTACX_site547]”: 7.01; for “ATATTTGCCCAAGATAGTACATATATATATATATAT [XGTACX_site7756]”: 9.38.

For the sequence “ATATTGGAGCACAACACACACAAGTATATATATGGA [CACACA_site1546]”, the “gcPBM binding intensity (ln)” value was determined as 7.24.

In the case of “AAATAGCCAAAAATCATGCACACCTAAAAAAAAAAA [CACACA_site2572]”, the “gcPBM binding intensity (ln)” value was 7.52. The same measure for “TATATATATATATATTGTACATATATTATTATATAT [XGTACX_site7447]”: 9.24.

As for “AATTCTCTTAATAAATAAACACAAATAAATAATAAA [GTGCAC_negctrl_site499]”, the “gcPBM binding intensity (ln)” value amounted to 6.93.
